# The whole screen tested about 91,000 compounds, of which about 290 (0.32%) were called active. The inconclusive results got no clear call from the source; some entries with a clear call stand among them for comparison. Calls come from the whole dose curve; as a rule, active = well fitted inhibition curve with a large enough effect; inconclusive = small, poorly fitted or top-dose-only effect; inactive = no such curve, though single readings can be large or run the other way. Potencies of inconclusive entries are doubtful fits and often do not repeat.
# Biological target: Single-stranded DNA cytosine deaminase (Homo sapiens) (UniProt Q9GZX7)
# Assay: Primary qHTS assay for inhibitors of Activation Induced Cytidine Deaminase (AID): AID signal; note: nearly all actives have a fitted effect of over 25% in size
# Conditions: AID deamination FRET fluorescence, UDG-coupled, 4 h; activity change, negative = inhibition: at 115 µM (top of the series)
# Description: Assay Provider (PI) Patricia Gearhart Ph.D.
# National Institute on Aging
# National Institute of Health (NIH), Bethesda, MD
# Assay Provider (PI) Rahul Kohli Ph.D.
# Perelman School of Medicine
# University of Pennsylvania, Philadelphia, PA
# Activation-Induced Deaminase (AID) is a cytosine deaminase which converts cytosine into uracil within stretches of ssDNA. The presence of uracil in DNA initiates a cascade of mutagenic DNA repair to introduce point mutations and DNA double strand breaks. Specific targeting of AID to the immunoglobulin heavy chain loci (Igh) promotes mutagenesis in the antibody variable region for somatic hypermutation (SHM) or switch regions leading to class switch recombination (CSR). However, AID also plays a role in accumulating unnecessary mutations across the genome. Mis-targeting of AID results in the initiation of tumor development and leads to greater drug resistance among cancer cells when continually expressed. To identify an AID inhibitor, a small molecule library will be screened in collaboration with NCATS core facility at NIH. To confirm biological function, inhibitors will be examined in an in vitro murine B-cell activation assay and subsequent secondary validation screens. Top molecules will be further screened to identify inhibitory efficacy against a wild type primary splenocytes assay. Using these approaches, we hope to identify a small molecule with great efficacy and low toxicity for use as a molecular probe to further characterize AID's intricacies, or even as a therapeutic.
# A FRET based analysis of cytosine deamination, was developed to identify potential inhibitors of AID catalytic activity. This screen has two signal output, Read 1 evaluates the AID inhibition response. The second readout (Read 2) evaluates UDG response and is uses as a counterscreen to exclude false positive inhibitors. Inhibition in AID and inactivity in the UDG signal is the desired outcome for this assay.
# SEQUENCE No. (e.g., 1, 2, 3, etc.); […] (e.g., Cells, Incubation, Reagent, etc.); VALUE; DESCRIPTION
# 1a; Reagent; 3 uL; [4/3x] 1 uM AID/2.67 U/mL UDG
# 1b; Reagent; 3 uL; 2 U/mL UDG
# 1c; Reagent; 3 uL; 1 uM AID
# 2a; Compound; 46 nL; Follow-up plates (0.64 uM - 10 mM)
# 2b; Control; 46 nL; ATA ([…] - 10 mM)
# 3; Time; 10 min; incubation at room temperature
# 5; Time; 4 hr; incubation at room temperature
# 6; Reagent; 4 uL; [2x] 250 mM NaOH
# 7; Time; 15 sec; centrifuge at 1000 rpm
# 8; Time; 30 min; incubation at room temperature
# 9a; Detection; fluorescence (Read 1: AID); EnVision (PerkinElmer) plate reader, 540 excitation and 590 emission filters
# 9b; Detection; fluorescence (Read 2: UDG); EnVision (PerkinElmer) plate reader, 560 excitation and 665 emission filters
# NOTES (numbers refer to sequence above)
# 1a; Reagents were dispensed in a medium-binding black solid-bottom Greiner plates (789176F) using a BioRptr liquid dispenser. Dispense 3 uL of [4/3x] 1 uM AID (provided by Kohli lab) and [4/3x] 2 U/mL UDG (NEB M0280L) into columns 1, 2, 5 to 48.
# 1b; Dispense 3 uL of [4/3x] 2 U/mL UDG into column 3.
# 1c; Dispense 3 uL of [4/3x] 1 uM AID into column 4.
# 2a; Compound (7-points [uM] (0.64; 3.2; 16; 80; 400; 2,000; 10,000; 20,000) double pin-transferred (Dip Factor = 2) using the Kalypsys (Wako USA) pintool equipped with a 1536 pinhead for a final concentration range of 7.32 nM - 114 uM.
# 2b; 10 mM Aurintricarboxylic Acid (Sigma A1895) (ATA, 8-point, n = 2, 1:2.5 dilution in column 2) double pin-transferred (Dip Factor = 2) using the Kalypsys (Wako USA) pintool equipped with a 1536 pinhead for a [final] range of 186 nM - 114 uM.
# 3; Room temperature incubation.
# 4; Dispense 1 uL of substrate mixture from the Kohli lab [4x] […] DJC20 and [4x] 250 nM DJC23 into columns 1 to 48 .
# 5; Room temperature incubation.
# 6; Dispense 4 uL of substrate mixture [2x] 250 mM NaOH into columns 1 to 48.
# 7; Centrifugation step to remove bubbles.
# 8; Room temperature incubation
# 9a; Fluorescence signal (column label AID) was read using the EnVision plate reader. […]
# % is set by controls: 0 for no effect and ±100 for the full control effect; potency is the fitted concentration of half-maximal effect; tags give direction and shape of the fitted curve.
# Sequence of UniProt Q9GZX7 (Q9GZX7 whole entry, looked up): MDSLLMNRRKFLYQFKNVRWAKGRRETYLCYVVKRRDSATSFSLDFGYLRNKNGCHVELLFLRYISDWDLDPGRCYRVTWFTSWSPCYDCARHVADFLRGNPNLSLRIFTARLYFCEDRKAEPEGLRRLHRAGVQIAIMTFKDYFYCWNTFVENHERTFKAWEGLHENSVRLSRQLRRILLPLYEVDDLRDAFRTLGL
Structure (SMILES),"activity change, negative = inhibition",Potency
CC(=O)C(Sc1ccc([N+](=O)[O-])cc1)C(C)=O,inactive: 2.31%,–
CC(C)(CNC(=O)C1CC1)CNC(=O)C1CC1,inactive: 6.86%,–
Cc1cc2c(cc3c(SCc4ccccc4Cl)nnc(C)n32)o1,–,"inconclusive: 44.7 µM [inhibitor, partial curve, poor fit]"
COC(=O)c1ccc(NC(=O)c2noc3c2COc2ccc(C)cc2-3)cc1,inactive: 1.38%,–
O=C(NCCCN1CCN(c2ccccc2F)CC1)c1ccc2nc(N3CCCCC3)sc2c1,–,"inconclusive: 70.8 µM [inhibitor, partial curve, poor fit]"
O=C(CCCCN1CCC(c2ccccc2)C1)c1ccccc1 (stereo not given),inactive: -9.27%,–
O=C(Nc1ccc(C(F)(F)F)cc1)C(Cc1ccccc1)n1cccc1 (stereo not given),–,"inconclusive: 100 µM [inhibitor, partial curve, poor fit]"
C=CCOc1ccc(/C=C(\C#N)c2nc3cc(C)c(C)cc3[nH]2)cc1OC,inactive: -8.79%,–
CCOc1ccc(-c2nc(SCC(=O)Nc3cc(F)ccc3F)n3[nH]c(=O)cc3n2)cc1,–,"inconclusive: 31.6 µM [inhibitor, partial curve, poor fit]"
Cc1ccc(CSc2nc(-c3ccccc3C)nc3c2Cc2c(CO)cnc(C)c2O3)cc1,–,"inconclusive: 39.8 µM [inhibitor, full curve, poor fit]"
Cc1ccc(C(=O)c2oc3ccccc3c2NC(=O)Cc2ccccc2)cc1,–,"inconclusive: 11.2 µM [inhibitor, full curve, poor fit]"
Cc1cccc(-c2noc(CN(C)C(=O)COc3ccc4ccccc4c3Br)n2)c1,–,"inconclusive: 44.7 µM [inhibitor, partial curve, poor fit]"
O=C(Nc1cc(Cl)cc(Cl)c1)c1ccc(F)c(S(=O)(=O)N2CCN(c3ccccc3F)CC2)c1,–,"inconclusive: 22.4 µM [inhibitor, full curve, poor fit]"
CC(=O)c1ccc(N2CCN(c3ncnc4c3cnn4-c3cc(Cl)ccc3C)CC2)cc1,–,"inconclusive: 25.1 µM [inhibitor, partial curve, poor fit]"
Cc1ccc(OCC(=O)Nc2cccc(C(=O)OCc3cc(=O)n4c(C)csc4n3)c2)cc1,–,"inconclusive: 22.4 µM [inhibitor, full curve]"
CCOc1ccccc1NC(=O)c1c(NC(=O)Cc2ccc(OC)cc2)sc2c1CCC2,–,"inconclusive: 56.2 µM [inhibitor, partial curve, poor fit]"
CCc1cccc(NC(=O)c2ccc3c(c2)c(C)c(C)n3Cc2ccc(F)cc2)c1,–,"inconclusive: 44.7 µM [inhibitor, single point]"
COc1ccccc1CNc1nc2ccccc2nc1NS(=O)(=O)c1ccc(Cl)cc1,inactive: -3.05%,–
NO,–,active: 39.8 µM
C[N+]1(CC#Cc2ccccc2)CCC(c2ccccc2)(c2ccccc2)CC1,–,"inconclusive: 89.1 µM [inhibitor, partial curve, poor fit]"
CC1=Nc2cc(C(=O)N3CCC(C)CC3)ccc2Sc2ccc(Cl)cc21,–,"inconclusive: 50.1 µM [inhibitor, partial curve, poor fit]"
O=C(NCc1ccc(F)cc1)NC1CC1,inactive: 10.1%,–

Structure (SMILES),"activity change, negative = inhibition",Potency
CCOC(=O)c1ccc(Oc2c(C)oc3cc(OCC)ccc3c2=O)cc1,inactive: 4.47%,–
CCn1cc(C(=O)NCCCOC)c(=O)c2cc(S(=O)(=O)N3CCc4ccccc4C3)ccc21,–,"inconclusive: 50.1 µM [inhibitor, partial curve, poor fit]"
O=C(COc1ccc(-c2nnc(N3CCCCC3)c3ccccc23)cc1)N1CCCCC1,–,"inconclusive: 56.2 µM [inhibitor, partial curve]"
CC(=O)N1c2ccccc2C(C)(c2ccc(C)cc2)CC1(C)C (stereo not given),–,"inconclusive: 79.4 µM [inhibitor, partial curve, poor fit]"
c1cnc(N2CCN(c3ncc4c(n3)CCNC4)CC2)nc1,–,"inconclusive: 35.5 µM [inhibitor, full curve, poor fit]"
CCOc1ccc(NC(=O)/C=C/c2cccc3ccccc23)cc1,inactive: 1.62%,–
COc1ccc2[nH]c(C)c(C(=O)CN3CCC(C)CC3)c2c1,inactive: -10.3%,–
Cc1ccccc1CSc1ccc(-c2cccs2)nn1,–,"inconclusive: 15.8 µM [inhibitor, full curve, poor fit]"
COc1cccc(-c2cn3ncsc3n2)c1,–,"inconclusive: 44.7 µM [inhibitor, full curve, poor fit]"
c1ccc(-c2nnc3sc(Cn4cccn4)nn23)cc1,inactive: 7.18%,–
COc1ccc2c(c1)Cc1sc(NC(=O)c3cccc(Br)c3)nc1-2,–,active: 50.1 µM
COc1ccccc1C(=O)Nc1ccc(C(=O)OCc2cc(=O)n3nc(C)sc3n2)cc1,–,active: 28.2 µM
CN(C(=O)c1ccc2c(Cl)c3c(nc2c1)CCC3)c1ccccc1F,–,"inconclusive: 79.4 µM [inhibitor, partial curve, poor fit]"
COc1ccc(C(=O)/C=C/c2ccc(Br)cc2)cc1CSCC(=O)O,–,"inconclusive: 44.7 µM [inhibitor, partial curve, poor fit]"
CCC1CCc2nc(N)c(C#N)c(-c3ccccc3Cl)c2C1 (stereo not given),inactive: -3.48%,–
Cc1cccc(CNC(=O)C2CCC(CNS(=O)(=O)c3ccc4c(c3)CCCC(=O)N4)CC2)c1 (stereo not given),–,"inconclusive: 39.8 µM [inhibitor, full curve, poor fit]"
Cc1ccc(NS(=O)(=O)c2ccc(-c3coc(C)n3)cc2)c(Cl)c1,inactive: 2.64%,–
CC(C)(C)c1ccc(C(=O)NCC(c2cccnc2)N2CCc3ccccc3C2)cc1 (stereo not given),–,"inconclusive: 50.1 µM [inhibitor, partial curve, poor fit]"
NC(=O)c1ccc(CN(C(=O)Cc2cccs2)C2CC2)cc1,inactive: 9.83%,–
CCCCNc1nc2c(c(=O)n(Cc3cccc(Br)c3)c(=O)n2C)n1C,–,"inconclusive: 63.1 µM [inhibitor, partial curve, poor fit]"
CCc1ccc(CSc2nc(-c3ccccc3F)nc3c2Cc2c(CO)cnc(C)c2O3)cc1,inactive: -12.6%,–
Cc1nc2ccccc2c(=O)n1-c1ccc(NC(=O)c2ccccc2[N+](=O)[O-])cc1,inactive: -2.8%,–

Structure (SMILES),"activity change, negative = inhibition",Potency
O=C(C1CC1)N(Cc1ccc2c(c1)CN(S(=O)(=O)c1ccccc1F)CCO2)c1ccccc1,–,"inconclusive: 25.1 µM [inhibitor, partial curve, poor fit]"
N#Cc1ccc(NN)c([N+](=O)[O-])c1,–,"inconclusive: 50.1 µM [inhibitor, partial curve, poor fit]"
CCN(C(=O)C1CCN(S(=O)(=O)c2cc(Br)cc3c2N(C(C)=O)CC3)CC1)c1cccc(C)c1,–,"inconclusive: 35.5 µM [inhibitor, partial curve, poor fit]"
CC(=O)c1ccc(N2CCN(S(=O)(=O)c3ccc(-c4coc(C)n4)cc3)CC2)cc1,inactive: 4.68%,–
O=C(/C=C/c1ccccc1Cl)N1CCC(c2nc3ccccc3o2)CC1,–,"inconclusive: 79.4 µM [inhibitor, partial curve, poor fit]"
Cc1ccc(CNC(=O)CS(=O)(=O)c2cccc3nsnc23)cc1,–,"inconclusive: 10 µM [inhibitor, partial curve, poor fit]"
COc1ccc(-c2nc(CS(=O)(=O)CC(=O)NCc3ccccc3Br)c(C)o2)cc1,–,"inconclusive: 44.7 µM [inhibitor, partial curve, poor fit]"
COc1ccc(C)cc1COc1ccc(C#N)cc1OC,inactive: -1.49%,–
COc1ccc(-c2nc(CSCC(=O)N3CCN(c4cc(Cl)ccc4C)CC3)c(C)o2)cc1,–,"inconclusive: 20 µM [inhibitor, full curve, poor fit]"
CCOc1ccc(N2CC(c3nc4ccccc4n3CCOc3ccccc3OC)CC2=O)cc1 (stereo not given),–,"inconclusive: 39.8 µM [inhibitor, partial curve, poor fit]"
O=C1CC(c2nc(-c3ccccc3)no2)CN1c1ccccc1 (stereo not given),–,"inconclusive: 79.4 µM [inhibitor, single point]"
COc1ccc(NC(=O)CCc2c(C)nn(-c3ccc(N4CCCCC4)nn3)c2C)cc1Cl,–,"inconclusive: 28.2 µM [inhibitor, partial curve, poor fit]"
Cc1ccc(Cn2ccnc2SCC(=O)NCc2ccccc2Cl)cc1,–,"inconclusive: 89.1 µM [inhibitor, single point]"
CCn1c(C(=O)N2CCC(C(=O)NCCc3ccc(C)cc3)CC2)cc2sccc21,–,"inconclusive: 63.1 µM [inhibitor, partial curve, poor fit]"
CC(C)(C)C(=O)Nc1ccc(N2CCCCC2)c2ccncc12,inactive: 1.37%,–
CN(C(=O)CCn1nc(-c2ccc(Cl)cc2)c2ccccc2c1=O)c1ccccc1,–,"inconclusive: 56.2 µM [inhibitor, partial curve, poor fit]"
CC1CCCCN1CCNC(=O)c1ccc(Cn2c(SCc3ccccc3)nc3cccnc32)cc1 (stereo not given),–,"inconclusive: 50.1 µM [inhibitor, partial curve, poor fit]"
C=Cc1ccc(CN2C(=O)N(c3ccc(C)c(C)c3)S(=O)(=O)c3ccccc32)cc1,–,"inconclusive: 100 µM [inhibitor, full curve]"
COc1ccccc1C(=O)Nc1nnc(SCc2cc(=O)c3ccccc3[nH]2)s1,–,"inconclusive: 50.1 µM [inhibitor, partial curve, poor fit]"
Cn1c(NCc2cccc(Cl)c2)nc2ccccc21,–,"inconclusive: 44.7 µM [inhibitor, partial curve, poor fit]"
Cc1ccc(C)c(NC(=O)Nc2cc3c(cc2N2CCCCC2)n(C)c(=O)n3C)c1,–,"inconclusive: 20 µM [inhibitor, full curve]"

# From PubChem BioAssay AID1347428 (National Center for Advancing Translational Sciences (NCATS), 2020)
